Experimental data from PubChem BioAssay AID1030 (National Center for Advancing Translational Sciences (NCATS), 2008).
The campaign covered roughly 220,000 compounds. About 16,000 (7.3%) were called active. The inconclusive results got no clear call from the source; some entries with a clear call stand among them for comparison. Calls come from the whole dose curve; as a rule, active = well fitted inhibition curve with a large enough effect (not every such curve was filed as active); inconclusive = small, poorly fitted or top-dose-only effect, or another doubt; inactive = no such curve, though single readings can be large or run the other way. Potencies beside an inconclusive call are fits to weak or partial responses and may not hold up.

Molecular target: Aldehyde dehydrogenase 1A1 (Homo sapiens) (UniProt P00352)
Sequence of UniProt P00352 (P00352 whole entry, looked up): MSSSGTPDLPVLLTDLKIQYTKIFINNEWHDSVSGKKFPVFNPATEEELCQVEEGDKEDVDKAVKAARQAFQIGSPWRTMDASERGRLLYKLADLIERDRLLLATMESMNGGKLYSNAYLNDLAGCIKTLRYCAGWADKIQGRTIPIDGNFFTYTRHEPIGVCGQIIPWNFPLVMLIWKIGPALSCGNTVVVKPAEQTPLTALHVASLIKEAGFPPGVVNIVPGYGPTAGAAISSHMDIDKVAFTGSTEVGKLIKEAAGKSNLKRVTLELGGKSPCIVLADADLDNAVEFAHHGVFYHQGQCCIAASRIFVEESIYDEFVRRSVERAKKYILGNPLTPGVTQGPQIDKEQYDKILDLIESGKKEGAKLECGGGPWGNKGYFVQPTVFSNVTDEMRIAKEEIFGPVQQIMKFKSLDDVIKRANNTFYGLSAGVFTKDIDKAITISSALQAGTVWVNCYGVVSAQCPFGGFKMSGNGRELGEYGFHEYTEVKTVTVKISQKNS
Test: qHTS Assay for Inhibitors of Aldehyde Dehydrogenase 1 (ALDH1A1)
Conditions: Purified ALDH1A1, NADH fluorescence, propionaldehyde substrate; series mostly up to 75.3 µM
Potency is the fitted concentration of half-maximal effect; tags give direction and shape of the fitted curve.

Potency, inactive:
O=C1C(=Cc2ccc(Br)o2)C(=O)c2ccccc21
CCn1c(/C=C/N(C(C)=O)c2ccccc2)[n+](CCCS(=O)(=O)[O-])c2cc(Cl)c(Cl)cc21
COc1ccccc1/C=N/NC(=O)Cn1cnc([N+](=O)[O-])n1
CC1CN(c2ccc(C(=O)c3ccccc3C(=O)O)cc2[N+](=O)[O-])CC(C)O1 (stereo not given)
COc1ccccc1NC(=O)Nc1nc(-c2cccnc2)nc2ccccc12
COc1ccc(CCNC(=O)C(=O)c2c[nH]c3ccccc23)cc1
CCC#CCOCC(=S)Nc1ccccc1
O=C(c1ccccc1)N(Cc1cccnc1)C1(C(=O)Nc2ccccc2)CCCCC1
C#CCOCCOCCOCCNc1nc(N2CCN(C(=O)[C@H]([C@@H](C)CC)n3cc([C@@H](N)Cc4ccc(O)cc4)nn3)CC2)nc(N2CCN(C(=O)[C@H](Cc3cc4ccccc4[nH]3)n3cc([C@@H](N)C(C)CC)nn3)CC2)n1 (stereo not given in full)
CN(c1ccccc1)S(=O)(=O)c1cccc(NC(=O)Cn2cnc3c2c(=O)n(C)c(=O)n3C)c1
COc1ccc(Oc2nc(OC)cc(OC)n2)cc1
O=C(NC(CO)(CO)CO)c1coc(=O)c(Br)c1
Cc1csc(NC(=O)Cc2coc3cc(C)c(C(C)C)cc23)n1
COc1ccccc1N1CCN(C(=O)c2oc3ccc(Br)cc3c2C)CC1
CCn1c(C2CC(=O)N(c3cc(C)cc(C)c3)C2)nc2ccccc21 (stereo not given)
Cc1ccc(C)c(NC(=S)NC(C)C(c2cccs2)N2CCOCC2)c1 (stereo not given)
O=C(CSc1nnc(C2CCCCC2)n1Cc1ccccc1)NCc1ccco1
C/C(CC(=O)Nc1ccc(Cl)c(C(F)(F)F)c1)=N\NC(=O)c1ccccc1O

Potency, inconclusive:
O=C(CSc1nnnn1C1CCCC1)Nc1cccc(NC(=O)c2ccco2)c1 25.1 µM [inhibitor, partial curve]
COc1cc(NC(=O)c2ccc3c(c2)OCO3)c2ncccc2c1 31.6 µM [inhibitor, partial curve]
CCN1C(=O)/C(=C/c2cccs2)N(C)C1=S 12.6 µM [inhibitor, partial curve]
Cc1ccc(-n2nnnc2SCC(=O)Nc2ccc3c(c2)OCCO3)cc1C 2.82 µM [inhibitor, full curve]
CC(C)Cc1nc(N2CCN(C(=O)Cc3ccccc3)CC2)c(C#N)c2c1COC(C)(C)C2 8.91 µM [inhibitor, partial curve]
Cc1ccc(N2C(=O)c3cccc4c(C(=O)O)ccc(c34)C2=O)cc1 39.8 µM [inhibitor, single point]
COc1cc(C(=O)NNC(=O)c2ccc(S(=O)(=O)N3CCCCC3)cc2)cc(OC)c1OC 39.8 µM [inhibitor, single point]
Cc1ccc(C(=O)NCC(=O)OCC(=O)/C=C2\N(C)c3ccccc3C2(C)C)cc1C 39.8 µM [inhibitor, single point]
Cc1ccc2nc(-c3cccnc3)oc2c1 25.1 µM [inhibitor, partial curve]
COC(=O)c1ccccc1NC1CC(=O)N(c2c(C)cccc2C)C1=O (stereo not given) 17.8 µM [inhibitor, partial curve]
Cc1nc(N2CCOCC2)c(C#N)c2c1COC(C)(C)C2 31.6 µM [inhibitor, partial curve]
CC(C)Cc1nc(N2CCN(C(=O)c3ccccc3)CC2)c(C#N)c2c1CCC2 28.2 µM [inhibitor, partial curve]
CCN(CC)c1ccc(/C=C(\C#N)C(=O)NCc2ccccc2)cc1 14.1 µM [inhibitor, partial curve]
Cc1ccc2c(CSc3nncs3)cc(=O)oc2c1 17.8 µM [inhibitor, partial curve]
COc1ccc(CCNC(=O)C2CC(=O)N(CCc3ccc(C)cc3)C2)cc1OC (stereo not given) 28.2 µM [inhibitor, single point]
Cc1sc(NC(=O)Cn2cnnn2)nc1-c1ccc(Cl)cc1 35.5 µM [inhibitor, single point]
CN1c2ccccc2Oc2nnc(N3CCN(Cc4ccccc4)CC3)cc21 39.8 µM [inhibitor, partial curve]
COc1cc(NC(=O)Cn2c(C)cc3ccccc3c2=O)cc(OC)c1OC 39.8 µM [inhibitor, single point]
CCN(CC)CCNC(=O)c1ccc2c(=O)n(C3CCCC3)c(=S)[nH]c2c1 17.8 µM [inhibitor, partial curve]
COC(=O)c1cc(NC(=O)CC2C(=O)NCCN2C(=O)c2ccc(F)cc2)cc(C(=O)OC)c1 (stereo not given) 18.9 µM [inhibitor, partial curve]
Cc1ccc(NS(=O)(=O)c2ccc(CCC(=O)NC3CC3)cc2)cc1 31.6 µM [inhibitor, single point]
CCC(C)N(C(=O)COC(=O)C1C(C(=O)OC)=C(C)NC(C)=C1C(=O)OC)C1CCS(=O)(=O)C1 (stereo not given) 39.8 µM [inhibitor, single point]
CC(=O)C1=C(O)C(=O)N(c2ccc(S(N)(=O)=O)cc2)C1c1ccccc1F (stereo not given) 39.8 µM [inhibitor, single point]
CC1(C)CC(=NNC(=O)c2n[nH]c3c2CCC3)CC(C)(C)N1 39.8 µM [inhibitor, single point]
CSCCC(Nc1ncnc2ccc(Br)cc12)C(=O)O (stereo not given) 39.8 µM [inhibitor, single point]
N#Cc1nc(COc2ccc(Br)cc2)oc1NCCN1CCOCC1 39.8 µM [inhibitor, single point]
Cc1ccc(N2C(=O)CSC23C(=O)Nc2ccccc23)cc1 (stereo not given) 25.1 µM [inhibitor, single point]
O=c1ccc(Oc2nc(N3CCCCC3)nc(N3CCCCC3)n2)n[nH]1 25.1 µM [inhibitor, single point]
Cc1ccc(Nc2ncc3c(n2)CC(C)(C)CC3=O)cc1 20 µM [inhibitor, partial curve]
Oc1ccc(/C=N/Nc2nccnc2Cl)c(O)c1 2.82 µM [inhibitor, full curve, poor fit]
CC(NC(=O)c1ccco1)C(=O)OCc1cccc(Cl)c1 (stereo not given) 39.8 µM [inhibitor, single point]
O=C(CCN1CCCCCC1)Nc1ccc2c(c1)OCCO2 25.1 µM [inhibitor, single point]
Cc1noc(NS(=O)(=O)c2ccc(NC(=O)c3ccc(OC(C)C)cc3)cc2)c1C 39.8 µM [inhibitor, single point]
CCCOC(=O)c1ccc(NC(=O)C2CCCO2)cc1 (stereo not given) 39.8 µM [inhibitor, single point]
CCOC(=O)C(=O)Nc1cc(C(=O)OC)cc(C(=O)OC)c1 44.7 µM [inhibitor, single point]
COc1ccc(C(=O)N/N=C(\c2ccccc2)c2ccccn2)cc1 39.8 µM [inhibitor, single point]
COc1ccc(/C=C(\C#N)C(=O)N=CN(C)C)cc1 39.8 µM [inhibitor, single point]
COc1ccc(C(C#N)N2CCCCCC2)cc1OC (stereo not given) 20 µM [inhibitor, single point]
CC(C)(C)Nc1nc(SCC(=O)Nc2ccccc2)nc(N2CCOCC2)n1 39.8 µM [inhibitor, single point]
COc1ccc2oc(-c3ccccc3)c(C(N)=O)c2c1 31.6 µM [inhibitor, partial curve]
O=C(COC(=O)c1ccccn1)Nc1ncc(C(F)(F)F)cc1Cl 35.5 µM [inhibitor, single point]
COc1ccccc1OCC(O)Cn1nc(C)cc1C (stereo not given) 31.6 µM [inhibitor, partial curve]
COc1cc(OC)cc(C(=O)N[C@H](C(=O)Nc2ccccc2N2CCOCC2)C(C)C)c1 28.2 µM [inhibitor, single point]
CCCC(=O)Nc1ccc(Cl)c(NC(=S)NC(=O)c2cc3ccccc3o2)c1 28.2 µM [inhibitor, single point]

Potency, active:
CCc1cccc2c1NC(=O)C21N2CCCC2C(C(=O)c2ccc3ccccc3c2)C12C(=O)Nc1ccccc12 (stereo not given) 20 µM
CC(=O)Nc1ccc(S(=O)(=O)Nc2ccc(S(=O)(=O)N3CCCC3)cc2)cc1 2.82 µM
O=C(NC(=S)Nc1ccccc1N1CCCC1)c1cccc(F)c1 8.91 µM
CC(C)OC(=O)c1cccc(C(=O)OCc2ccco2)n1 8.91 µM
CCC(C)Nc1nnnc2c1sc1nc3c(cc12)COC(C)(C)C3 (stereo not given) 10 µM
CCCCCC(=O)N1CCN(CCN=CC2=C(O)CC(c3ccc(OC)c(OC)c3)CC2=O)CC1 (stereo not given) 22.4 µM
CC(C)N(Cc1cc2ccccc2[nH]c1=O)C(=O)c1ccco1 17.8 µM
c1ccc(OCc2nnc3sc(C4COc5ccccc5O4)nn23)cc1 (stereo not given) 10 µM
